Article PMC4351876 (Cancer prevention research (Philadelphia, Pa.), 2013)

Tests used:
[1] = Population pharmacokinetics of erlotinib in plasma; format: in vivo, human; details: ln2 × V/CL
[2] = in combination with celecoxib 400mg BID; 3+3 escalation

C#Cc1cccc(Nc2ncnc3cc(OCCOC)c(OCCOC)cc23)c1 [erlotinib]
average t1/2 [1]: 25.6 h | maximum tolerated dose (MTD) of erlotinib [2]: 50 mg/day
